PubChem BioAssay AID485367 (National Center for Advancing Translational Sciences (NCATS), 2010)
Screen size: about 330,000 compounds; about 560 (0.17%) were called active. The inconclusive results got no clear call from the source; some entries with a clear call stand among them for comparison. The call rests on the fitted dose curve; in most records, active means well fitted inhibition curve with a large enough effect; inconclusive means small, poorly fitted or top-dose-only effect, or effect the other way; inactive means flat fitted curve, though single readings scatter. Potencies of inconclusive entries are left out as doubtful fits.

biological target: ATP-dependent 6-phosphofructokinase (Trypanosoma brucei brucei) (UniProt O15648); assay: qHTS Assay to Find Inhibitors of T. brucei phosphofructokinase; further: nearly all actives have a fitted effect of over 60% in size;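 on activity, negative = inhibition: 0% = uninhibited 1x PFK enzyme wells and -100% = no-enzyme wells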; conditions: T. brucei PFK, ADP-Glo luminescence; activity, negative = inhibition: at 57.5 µM (top of the series)
In short: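 In TEA buffer at pH 8.0 with 5 mM MgCl2, enzyme (1.25 nM) converted F6P (0.5 mM) and ATP (0.1 mM) for 45 min at room temperature. ADP product was read by luciferase luminescence.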
Potency means the concentration at half of the fitted maximal effect; tags describe the fitted curve by direction and shape.

Chain of UniProt O15648 (O15648 whole entry, looked up): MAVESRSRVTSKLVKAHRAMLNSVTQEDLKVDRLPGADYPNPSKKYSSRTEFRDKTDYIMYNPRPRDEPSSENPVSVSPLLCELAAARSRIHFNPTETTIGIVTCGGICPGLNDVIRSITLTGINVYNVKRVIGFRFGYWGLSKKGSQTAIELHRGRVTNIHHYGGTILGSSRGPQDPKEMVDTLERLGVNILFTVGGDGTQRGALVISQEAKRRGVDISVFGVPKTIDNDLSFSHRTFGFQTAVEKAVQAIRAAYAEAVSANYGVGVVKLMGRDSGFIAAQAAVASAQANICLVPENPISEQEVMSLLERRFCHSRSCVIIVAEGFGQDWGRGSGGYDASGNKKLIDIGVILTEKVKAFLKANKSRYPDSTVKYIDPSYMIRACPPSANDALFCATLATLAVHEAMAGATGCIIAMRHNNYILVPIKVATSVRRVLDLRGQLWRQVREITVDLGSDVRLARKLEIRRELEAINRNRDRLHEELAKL

SMILES | Potency | activity, negative = inhibition
CC(/C=C/c1ccco1)=N\NC(=O)c1cccnc1 | inconclusive [falling, single point] | –
O=C(COc1ccc(Cl)cc1Cl)N/N=C/c1cccnc1 | inconclusive [falling, single point] | –
O=c1c(OC2OC(CO)C(O)C(O)C2O)c(-c2ccc(O)c(O)c2)oc2cc(O)cc(O)c12 (centres undefined) | active: 12 µM | –
COc1ccc2c(c1)c1ccc3c(c1n2C)C(=O)C=CC3=O | – | inactive: -10.2%
S=c1[nH]nc(-c2cccnc2)n1/N=C/C=C/c1ccco1 | active: 30.1 µM | –
O=C(O)Cn1c(CC(=O)N2CCCC2)nc2ccccc21 | – | inactive: 2.21%
O=C(O)/C=C/c1ccc(O)c(O)c1 | inconclusive [falling, single point] | –
O=C(Cn1cnc2ccccc21)Nc1ccc(F)c(F)c1 | inconclusive [falling, single point] | –
CCN(CC)CCCN(C(=O)c1ccc(Br)cc1)c1nc(-c2ccc(OC)cc2)cs1 | – | inactive: 0.477%
CN(CCOc1ccccc1)C(=O)c1cc(-c2ccco2)nc2ccccc12 | inconclusive [falling, partial curve] | –
C=CCSc1nc2c(c(=O)[nH]c(=O)n2C)n1C(C)C | inconclusive [falling, single point] | –
O=c1oc2c3c4c(cc2s1)CCCN4CCC3 | inconclusive [falling, single point] | –
O=C(Nc1cccnc1)Nc1ccc(F)c(Cl)c1 | inconclusive [falling, single point] | –
Cc1ccc(-c2oc3ccccc3c(=O)c2OCC(=O)O)cc1 | inconclusive [activator, single point] | –
NC(=O)C1CCCCc2c1[nH]c1ccc(Cl)cc21 (centres undefined) | – | inactive: -6.57%
Cn1c(NNC(=O)C(c2ccccc2)c2ccccc2)cc(=O)n(C)c1=O | – | inactive: -8%
C[C@@H]1[C@H]2[C@@H](O[C@@H]3O[C@H](CO)[C@@H](O)[C@H](O)[C@H]3O)OC=C(C(=O)O)[C@H]2C[C@@H]1O | inconclusive [falling, single point] | –
Cc1ccc(OCc2ccc(C(=O)Nc3ccc(C(N)=O)cc3)o2)c([N+](=O)[O-])c1 | inconclusive [falling, full curve, poor fit] | –
O=C(NC1CCN(Cc2ccccc2)CC1)C1CCCN(c2nnc(-n3cccc3)s2)C1 (centres undefined) | inconclusive [falling, single point] | –
COc1ccc(CNc2ccc(Cl)cc2)cc1Cn1ccnc1 | inconclusive [falling, partial curve] | –
COc1ccc(OC)c2sc(NC(=O)c3ccc(S(=O)(=O)N4CCOCC4)cc3)nc12 | – | inactive: -4.62%
CNC(=O)c1ccc(NC(=O)c2ccc3c(=O)n4c(nc3c2)CCC4)cc1 | inconclusive [falling, partial curve] | –

SMILES | Potency | activity, negative = inhibition
O=C(CSc1nc2ccccc2c(=O)n1CCCO)NC1CC1 | inconclusive [falling, single point] | –
CCOCCCNC1=C(Cl)C(=O)c2ccccc2C1=O | inconclusive [falling, single point] | –
O=C(O)c1cc(-n2nnnc2SCc2ccc([N+](=O)[O-])cc2)ccc1Cl | inconclusive [falling, single point] | –
NS(=O)(=O)c1ccc(CNC(=S)Nc2ccc(F)c(Cl)c2)cc1 | inconclusive [falling, single point] | –
COc1cc([N+](=O)[O-])cc(/C=N/NC(=O)c2ccc(NC(=O)c3ccc(C)cc3)cc2)c1O | – | inactive: 0.0272%
O=C(O)c1ccccc1C(=O)Nc1n[nH]c(=S)s1 | inconclusive [falling, single point] | –
CCc1nc(Nc2ccccc2OC)c2oc3ccccc3c2n1 | inconclusive [activator, full curve, poor fit] | –
CCOc1ccccc1NC(=O)c1csc(C)c1C | inconclusive [falling, single point] | –
Cc1nnc(SCC(=O)Nc2ccc(S(=O)(=O)Nc3ccc(Cl)nn3)cc2)s1 | inconclusive [falling, single point] | –
O=C(O)C1Sc2[nH]c(=O)sc2C2c3ccc(O)cc3OC(=O)C12 (centres undefined) | inconclusive [activator, single point] | –
COc1cc(-c2cc(=O)c3c(O)c(OC)c(OC)c(O)c3o2)ccc1O | inconclusive [falling, partial curve] | –
COc1ccccc1Cn1c(=S)[nH]c2cc(C(=O)NCCN(C)C)ccc2c1=O | – | inactive: -3.72%
COc1cc(/C=C2\CCCc3c2nc2ccccc2c3C(=O)O)cc(OC)c1O | inconclusive [activator, full curve] | –
C=CCn1c(C(C)NC(=O)CCC)nc2ccccc21 (centres undefined) | inconclusive [activator, single point] | –
Cc1cc(C)c(C)c(S(=O)(=O)N2CCC(C(=O)OCC(=O)N3c4ccccc4NC(=O)C3(C)C)CC2)c1C | inconclusive [falling, partial curve] | –
O=C(Cc1csc(NC(=O)Nc2cccc(Cl)c2)n1)NC1CCCC1 | – | inactive: -6.5%
Cc1cc(NS(=O)(=O)c2ccc(NC(=S)NCc3ccccc3)cc2)no1 | active: 19 µM | –
O=C(Cc1cccs1)NCCS(=O)(=O)N1CCN(c2cccc(Cl)c2)CC1 | inconclusive [falling, single point] | –
CC(O)c1nc2ccccc2n1CCOc1ccccc1 (centres undefined) | inconclusive [falling, single point] | –
COc1ccc(-n2c(SCC(=O)C(C)(C)C)nc3c(sc(=S)n3-c3ccccc3)c2=O)c(OC)c1 | inconclusive [falling, partial curve] | –
CC(=O)NS(=O)(=O)c1ccc(NC(=O)c2cc(-c3ccc(C)c(C)c3)nc3ccccc23)cc1 | inconclusive [falling, single point] | –
O=C(O)c1cc(-c2ccco2)[nH]n1 | inconclusive [activator, single point] | –
